For 91 compounds, survival results are on record in PubChem BioAssay AID463173 (ICCB-Longwood Screening Facility, Harvard Medical School, 2010).

Molecules are shown by their SMILES. Out of some 52,000 compounds screened, about 1,700 (3.3%) were called active. Cut-off read from the data, not from the text of the source: active = survival mostly below about 52% (no sharp cut-off); inactive = mostly above about 56%. The list shows a part of the results.

The test system of the assay is Wild type. As to the kind of experiment: growth inhibition of S. aureus wild type versus tarO mutant, primary screen, teichoic acid synthesis inhibitors, RN4220, OD600 (AID 463173). The settings on record: S. aureus RN4220 wild type/DeltatarO growth, OD600, 18 h, active compounds read low, screened at 18.75 µg/mL (by protocol).
As for `COc1ccc2nc3sc(C(=O)Nc4cc(Cl)c(OC)cc4OC)cc3cc2c1`, the survival was inactive: 87%.

Take `Cc1c(NC(=O)c2cc(-c3cccc(Cl)c3)on2)c(=O)n(-c2ccccc2)n1C`: the survival was inactive: 78%.

For the compound `CCOCCCn1c(=N)c(C(=O)NCc2ccco2)cc2c(=O)n3ccccc3nc21`, the survival is inactive: 74%.

Turning to `COCCCNc1nc2c(-c3ccccc3)nnn2c2ccccc12`, the survival is inactive: 85%.

As to `CCOC(=O)c1c(C)oc2nc(C)nc(NCc3ccc(C)cc3)c12`, the survival is inactive: 71%.

Regarding `CCN1CCN(Cc2c(O)ccc3c(=O)c(Oc4ccccc4Cl)c(C(F)(F)F)oc23)CC1`, the survival is inactive: 74%.

For `CC(NC(=O)c1ccc(-c2ccccc2)cc1)C(=O)O` (stereo unspecified), the survival is inactive: 92%.

With `Cc1ccccc1C(=O)NCC(c1cccnc1)N1CCc2ccccc21` (stereo unspecified), the survival was inactive: 81%.

For the compound `Cc1cccc(N2CCN(S(=O)(=O)c3ccc4oc(=O)c5ncn(C)c5c4c3)CC2C)c1` (stereo unspecified), the survival is inactive: 73%.

In the case of `COc1ccc(N(C(=O)COc2c(C)cccc2C)S(=O)(=O)c2ccc(Cl)cc2)cc1`, the survival is inactive: 65%.

As for `COC(=O)c1ccccc1NC(=O)c1cc2nc(-c3ccccc3)cc(-c3ccccc3)n2n1`, the survival is inactive: 69%.

As to `CCOC(=O)c1c(C)sc(-c2c(-c3ccc4c(c3)OCCO4)[nH]c3c2c(=O)[nH]c(=O)n3C)c1O`, the survival is inactive: 106%.

Turning to `COc1ccc(NC(=O)C2(c3cccs3)CCOCC2)cc1Cl`, the survival is inactive: 90%.

Consider `Cc1ccc(-c2nnc(Nc3ccc(O)cc3)c3ccccc23)cc1S(=O)(=O)NCc1nc2ccccc2[nH]1`, for which the survival is inactive: 92%.

With `O=c1oc2ccccc2n1CN1CCCCC1`, the survival was inactive: 105%.

For `COc1cccc(N2CCN(C(=O)c3c(C)oc4ncnc(N5CCCCC5)c34)CC2)c1`, the survival was inactive: 133%.

On to `CC(C)CN(CCCNC(=O)CN1C(=O)COc2ccc(S(=O)(=O)N3CCCCCC3)cc21)CC(C)C`, for which the survival is inactive: 124%.

In the case of `COc1cc(NC(=O)CSc2nc(C)c(C(=O)Nc3ccccc3)c(-c3ccc(OC)c(OC)c3)c2C#N)c(OC)cc1Cl`, the survival is inactive: 75%.

On to `COc1ccc(N2CC3=C(C2=O)C(c2ccc(Br)cc2)NC(=O)N3C)cc1` (stereo unspecified), for which the survival was inactive: 156%.

As to `Cc1cc(Nc2sc(C(=O)c3ccc(F)cc3)c(N)c2C(=O)Nc2ccc(F)cc2)ccc1Cl`, the survival is inactive: 85%.

With `Cc1ccc(Cl)cc1N1CCN(CCCNc2ncnc3onc(-c4ccc(F)cc4)c23)CC1`, the survival was inactive: 87%.

With `Cc1ccoc1C(=O)Nc1ccccc1C(=O)O`, the survival is inactive: 102%.

Take `COc1cccc(-n2c(=O)c3sc4ccccc4c3n(CC(=O)Nc3ccc(F)cc3F)c2=O)c1`: the survival is inactive: 78%.

`O=S(=O)(NC1CC1)c1cccs1`: the survival is inactive: 111%.

Consider `CN1C(=O)/C(=C/C=C2\SCCN2C)OC1=S`, for which the survival was inactive: 110%.

`COc1ccc2nc(NC(=O)c3nc(SCc4ccccc4F)ncc3Cl)sc2c1`: the survival is inactive: 90%.

Turning to `Cc1cc(C)n(-c2nc3cc(Cl)ccc3nc2Nc2ccc(CC(=O)O)cc2)n1`, the survival was inactive: 131%.

`CCCCn1c(NCc2cc(Br)ccc2O)nc2ccccc21`: the survival is inactive: 69%.

As to `NC(=O)Cc1nnc(-c2ccccc2)c(-c2ccccc2)n1`, the survival is inactive: 111%.

`COc1ccccc1CNC(=O)C1CCN(S(=O)(=O)c2ccc3c(ccn3C)c2)CC1`: the survival is inactive: 131%.

`CCNC(=O)C1CCN(c2nnc(C)c3c(C)n(-c4ccc(OC)cc4)nc23)CC1`: the survival is inactive: 99%.

Turning to `Cc1cccc(NC(c2ccccc2C)c2ccc3ccc(C)nc3c2O)n1` (stereo unspecified), the survival is active: -3%.

`COC(=O)c1c(-c2cccs2)csc1NC(=O)c1ccc(OC)c(OC)c1`: the survival was inactive: 75%.

Regarding `Cc1nnc(SCc2ccc(Cl)cc2Cl)o1`, the survival was inactive: 118%.

For the compound `COc1ccc(S(=O)(=O)c2c(SC)nn(CC(=O)Nc3cccc(C)c3C)c2N)cc1`, the survival was inactive: 81%.

In the case of `Cc1ccc2c(c1)NC(=O)c1cccnc1O2`, the survival was inactive: 74%.

On to `Cc1ccc(-c2nc(CS(=O)(=O)CC(=O)NCCc3ccccc3)c(C)o2)cc1`, for which the survival is inactive: 99%.

As to `COc1ccc(CNC(=O)Cn2nc(N3CCN(c4ccccc4)CC3)ccc2=O)c(OC)c1`, the survival is active: -4%.

In the case of `O=C(Nc1ccc(OCc2cc(=O)n3ccccc3n2)cc1)c1ccccc1Cl`, the survival is inactive: 75%.

With `CCc1nnc(NC(=O)c2c(O)c3ccccc3[nH]c2=O)s1`, the survival is inactive: 102%.

Turning to `CC1=C(C(=O)Nc2ccccc2)C(c2ccncc2)n2nc(SCc3ccccc3F)nc2N1` (stereo unspecified), the survival was inactive: 106%.

On to `CCC(C)Nc1oc(-c2ccc(COc3ccc(Cl)cc3)o2)nc1C#N` (stereo unspecified), for which the survival is inactive: 84%.

Regarding `CCn1cc(C(=O)NCc2ccc(C)cc2)c(=O)c2cc(S(=O)(=O)N(C)C3CCCCC3)ccc21`, the survival was inactive: 83%.

Regarding `CCc1ccc(CN(Cc2ccco2)C(=O)COc2ccc(Cl)c(C)c2)cc1`, the survival is inactive: 74%.

For `O=C(NC1CC1)C1CCN(C(=O)NCc2ccccc2)CC1`, the survival is inactive: 96%.

For the compound `CCC(C)NC(=O)CSc1nc2c(sc3ccccc32)c(=O)n1CCc1ccc(OC)c(OC)c1` (stereo unspecified), the survival was inactive: 87%.

On to `CCN(CC)c1nc2c(S(=O)(=O)c3cccc(Cl)c3)nnn2c2ccsc12`, for which the survival was inactive: 68%.

As for `Cc1cccc(OCC(O)Cn2c(=N)n(CCN3CCCCC3)c3ccccc32)c1` (stereo unspecified), the survival was inactive: 91%.

`CCN1CCN(C(=O)Cn2c(-c3cccs3)cc3ccccc32)CC1`: the survival is inactive: 73%.

As for `COc1nc(-c2ccccc2)ccc1-c1noc(-c2ccccc2Br)n1`, the survival was active: -2%.

With `O=C(CN1CCC(n2nnc3ccccc32)CC1)N(C1CCCCC1)C1CCCCC1`, the survival was inactive: 115%.

Regarding `COc1cccc(OCc2cc(=O)n3c(-c4ccccc4)csc3n2)c1`, the survival was inactive: 73%.

With `COC(=O)c1cccc(NC(=O)c2nsc3ccccc23)c1`, the survival was active: 0%.

As for `COc1ccc(CCNC(=O)c2ccc3c(c2)N(Cc2ccccc2F)C(=O)c2ccccc2S3=O)cc1OC` (stereo unspecified), the survival is inactive: 108%.

Regarding `COc1ccc(N2CCN(S(=O)(=O)CCNC(=O)COc3ccccc3F)CC2)cc1`, the survival was inactive: 68%.

Take `CCN(CC)S(=O)(=O)c1ccc(C(=O)NCCSc2c(-c3ccc(C)cc3)[nH]c3ccccc23)cc1`: the survival was inactive: 79%.

`CCOc1ccccc1CNC(=O)CCc1c(C)nn(-c2ccc(N3CCOCC3)nn2)c1C`: the survival was inactive: 73%.

`CS(=O)(=O)N1CCC(C(=O)Nc2ccccc2)CC1`: the survival is inactive: 107%.

As for `O=C(CN1C(=O)COc2ccc(S(=O)(=O)N3CCCC3)cc21)N1CCN(c2cccc(C(F)(F)F)c2)CC1`, the survival was inactive: 81%.

For the compound `Cc1ccc(C(=O)Oc2c(S(=O)(=O)c3ccccc3)c(C)nn2-c2ccccc2)cc1`, the survival is inactive: 57%.

As to `CN1C(=O)c2ccccc2Sc2ccc(NC(=O)NCc3cccc(Cl)c3)cc21`, the survival was inactive: 78%.

Regarding `CCOC(=O)CSc1nc(-c2ccc(Cl)cc2)cc(C(F)(F)F)c1C#N`, the survival was inactive: 68%.

Regarding `CC1Cc2ccccc2N1C(=O)CSc1nnc2n1C(C)(C)Cc1ccccc1-2` (stereo unspecified), the survival was inactive: 105%.

Turning to `Cc1ccc(Cc2nc3ccccc3nc2SCC(=O)N2CCCc3ccccc32)cc1`, the survival was inactive: 87%.

On to `Cc1ccccc1C(=O)NCCc1csc(-c2ccc(C(F)(F)F)cc2)n1`, for which the survival is inactive: 72%.

Regarding `COc1ccc(-n2c(-c3ccc(C)cc3)cc3c2CC(C)(C)CC3=O)c(OC)c1`, the survival was inactive: 96%.

As for `Cc1cn2c(=O)cc(COC(=O)c3cccc(NC(=O)COc4ccccc4C)c3)nc2s1`, the survival is inactive: 80%.

As to `Cc1ccc(NC(=O)CCNS(=O)(=O)c2cccc3nonc23)cc1Cl`, the survival is inactive: 60%.

Take `CN1CCN(C(=O)C2CCCCC2C(=O)O)CC1` (stereo unspecified): the survival is inactive: 108%.

For the compound `CCC(=O)n1nc(-c2ccc(OC)cc2)nc1SC`, the survival is inactive: 100%.

Consider `CCCNC(=O)C(C)n1nc(C)c2c(C)n(-c3ccccc3)nc2c1=O` (stereo unspecified), for which the survival is inactive: 75%.

On to `CCOC(=O)C1=C(CC)NC2=C(C(=O)CCC2)C1c1ccccc1` (stereo unspecified), for which the survival was inactive: 101%.

Turning to `Cc1ccc(CNC(=O)CSc2c3c(nc4cc(Cl)ccc24)CCCC3)cc1`, the survival is inactive: 83%.

In the case of `Cc1c(-c2nc(-c3ccccc3F)no2)nnn1-c1cc(F)ccc1F`, the survival was inactive: 72%.

For `O=c1oc2cc(O)ccc2cc1-c1nnc(Nc2ccccc2F)s1`, the survival was inactive: 79%.

Consider `C/C(=N\O)C(=O)NCc1cccnc1`, for which the survival is inactive: 107%.

In the case of `CCOc1ccccc1NC(=O)Cn1c(=O)n(Cc2ccco2)c(=O)c2ccc(C(=O)NC3CCCC3)cc21`, the survival was inactive: 82%.

In the case of `Clc1ccc2c(c1)CN(C1CCCCC1)CO2`, the survival is inactive: 109%.

For `CCc1ccccc1NC(=O)C1CCN(C(=O)N2CC(C)Oc3ccc(Cl)cc32)CC1` (stereo unspecified), the survival is inactive: 85%.

`Cc1cc(F)ccc1NC1(c2ccccc2)C(=O)c2ccccc2C1=O`: the survival was inactive: 71%.

Consider `COc1ccc(Cl)cc1NC(=O)Cn1nc(Cc2ccncc2)c2ccccc2c1=O`, for which the survival was inactive: 80%.

Consider `N=C1SCC(=O)N1c1ccc(Cl)cc1`, for which the survival is inactive: 124%.

On to `CCn1cc(C(=O)NCCc2ccc(OC)c(OC)c2)c(=O)c2cc(S(=O)(=O)N3CCC(C)CC3)ccc21`, for which the survival was inactive: 83%.

For `CCOc1ccc(-n2c(SCC(=O)N3CCCCCC3)nc3c([nH]c4ccccc43)c2=O)cc1`, the survival was inactive: 124%.

For the compound `Cc1ccc(OC(=O)CSc2nnc(-c3cccs3)o2)cc1C`, the survival was inactive: 83%.

As to `O=C(N1CCCCC1)N1CCC(c2nc3ccccc3[nH]2)CC1`, the survival is inactive: 84%.

For the compound `O=c1nc(N2CCOCC2)nc(N2CCOCC2)[nH]1`, the survival is inactive: 105%.

`CC(C)C(=O)Nc1ccc(NC(=O)c2ccccc2)nc1`: the survival was inactive: 106%.

On to `Cc1ccc(NC(=O)c2sc3nc[nH]c(=O)c3c2C)cc1Cl`, for which the survival is inactive: 135%.

Turning to `CCOc1ccc(N(CC(=O)Nc2ccccc2CC)S(=O)(=O)c2c(C)[nH]c(=O)[nH]c2=O)cc1`, the survival is inactive: 75%.

For the compound `Cc1c(Cl)cccc1-n1ncc(C(=O)NCc2cccs2)c1C1CCN(C(=O)OC(C)(C)C)CC1`, the survival is inactive: 69%.
